For at least one compound, name, drawing or mass did not settle the structure. Numbered stars: 1 amine (or outer) side, 2 acyl side, 3 side chain; on linkers, the order of the positions; unused ones are H or OH. Side chains are listed from the residue outwards. Peptide text beside a SMILES is read from it. * marks the point of attachment. C20 diacid = O=C(O)CCCCCCCCCCCCCCCCCCC(=O)*; C18 diacid = O=C(O)CCCCCCCCCCCCCCCCC(=O)*; γGlu = O=C(O)[C@H](CCC(=O)[*:2])N[*:1]
Test: Assay (III) ThT fibrillation, physical stability
Assay type: physicochemical
Conditions: pH 7.5, 37° C., shaking

Row | SMILES | ThT pH 7.5 lag time (h)
1 | CC(C)C[C@H](NC(=O)[C@H](C)NC(=O)[C@H](C)NC(=O)[C@@H](NC(=O)[C@H](CO)NC(=O)[C@H](CC(C)C)NC(=O)[C@H](CCCCNC(=O)CC[C@H](NC(=O)CCCCCCCCCCCCCCCCCCC(=O)O)C(=O)O)NC(=O)[C@H](CO)NC(=O)[C@H](C)N)[C@@H](C)O)C(=O)NCC(=O)N[C@@H](CCCNC(=N)N)C(=O)N[C@@H](CC(C)C)C(=O)N[C@@H](CO)C(=O)N[C@@H](C)C(=O)N[C@@H](CCC(=O)O)C(=O)N[C@@H](CC(C)C)C(=O)N[C@@H](Cc1c[nH]cn1)C(=O)N[C@@H](CCC(=O)O)C(=O)N[C@@H](CC(C)C)C(=O)N[C@@H](C)C(=O)N[C@H](C(=O)N[C@@H](CC(C)C)C(=O)N1CCC[C@H]1C(=O)N[C@@H](CCCNC(=N)N)C(=O)N[C@H](C(=O)N[C@@H](CCC(=O)O)C(=O)N[C@H](C(=O)NCC(=O)N[C@@H](CO)C(=O)NCC(=O)N[C@@H](CO)C(=O)N1CCC[C@H]1C(N)=O)[C@@H](C)O)[C@@H](C)O)[C@@H](C)O [compound 52, [des1, 4K(C20 diacid-gGlu), 30S, 31G]mimylin] (H-ASK([γGlu-C20 diacid])LSTAALGRLSAELHELATLPRTETGSGSP-NH2; N-terminus assumed) | >45
2 | CC(C)C[C@H](NC(=O)[C@H](C)NC(=O)[C@H](C)NC(=O)[C@@H](NC(=O)[C@H](CO)NC(=O)[C@H](CC(C)C)NC(=O)[C@H](CCC(=O)O)NC(=O)[C@H](CO)NC(=O)[C@H](C)N)[C@@H](C)O)C(=O)NCC(=O)N[C@@H](CCCNC(=N)N)C(=O)N[C@@H](CC(C)C)C(=O)N[C@@H](CO)C(=O)N[C@@H](C)C(=O)N[C@@H](CCCCNC(=O)CC[C@H](NC(=O)CCCCCCCCCCCCCCCCCCC(=O)O)C(=O)O)C(=O)N[C@@H](CC(C)C)C(=O)N[C@@H](Cc1c[nH]cn1)C(=O)N[C@@H](CCC(=O)O)C(=O)N[C@@H](CC(C)C)C(=O)N[C@@H](C)C(=O)N[C@H](C(=O)N[C@@H](CC(C)C)C(=O)N1CCC[C@H]1C(=O)N[C@@H](CCCNC(=N)N)C(=O)N[C@H](C(=O)N[C@@H](CCC(=O)O)C(=O)N[C@H](C(=O)NCC(=O)N[C@@H](CO)C(=O)NCC(=O)N[C@@H](CO)C(=O)N1CCC[C@H]1C(N)=O)[C@@H](C)O)[C@@H](C)O)[C@@H](C)O [compound 53, [des1, 16K(C20 diacid-gGlu), 30S, 31G]mimylin] (H-ASELSTAALGRLSAK([γGlu-C20 diacid])LHELATLPRTETGSGSP-NH2; N-terminus assumed) | >45
3 | CC(C)C[C@H](NC(=O)[C@H](C)NC(=O)[C@H](C)NC(=O)[C@@H](NC(=O)[C@H](CO)NC(=O)[C@H](CC(C)C)NC(=O)[C@H](CCC(=O)O)NC(=O)[C@H](CO)NC(=O)[C@H](C)N)[C@@H](C)O)C(=O)NCC(=O)N[C@@H](CCCNC(=N)N)C(=O)N[C@@H](CC(C)C)C(=O)N[C@@H](CO)C(=O)N[C@@H](C)C(=O)N[C@@H](CCC(=O)O)C(=O)N[C@@H](CC(C)C)C(=O)N[C@@H](Cc1c[nH]cn1)C(=O)N[C@@H](CCCCNC(=O)CC[C@H](NC(=O)CCCCCCCCCCCCCCCCCCC(=O)O)C(=O)O)C(=O)N[C@@H](CC(C)C)C(=O)N[C@@H](C)C(=O)N[C@H](C(=O)N[C@@H](CC(C)C)C(=O)N1CCC[C@H]1C(=O)N[C@@H](CCCNC(=N)N)C(=O)N[C@H](C(=O)N[C@@H](CCC(=O)O)C(=O)N[C@H](C(=O)NCC(=O)N[C@@H](CO)C(=O)NCC(=O)N[C@@H](CO)C(=O)N1CCC[C@H]1C(N)=O)[C@@H](C)O)[C@@H](C)O)[C@@H](C)O [compound 54, [des1, 19K(C20 diacid-gGlu), 30S, 31G]mimylin] (H-ASELSTAALGRLSAELHK([γGlu-C20 diacid])LATLPRTETGSGSP-NH2; N-terminus assumed) | >45
4 | CC(C)C[C@H](NC(=O)[C@H](C)NC(=O)[C@H](C)NC(=O)[C@@H](NC(=O)[C@H](CO)NC(=O)[C@H](CC(C)C)NC(=O)[C@H](CCC(=O)O)NC(=O)[C@H](CO)NC(=O)[C@H](C)N)[C@@H](C)O)C(=O)NCC(=O)N[C@@H](CCCNC(=N)N)C(=O)N[C@@H](CC(C)C)C(=O)N[C@@H](CO)C(=O)N[C@@H](C)C(=O)N[C@@H](CCC(=O)O)C(=O)N[C@@H](CC(C)C)C(=O)N[C@@H](Cc1c[nH]cn1)C(=O)N[C@@H](CCC(=O)O)C(=O)N[C@@H](CC(C)C)C(=O)N[C@@H](C)C(=O)N[C@H](C(=O)N[C@@H](CC(C)C)C(=O)N1CCC[C@H]1C(=O)N[C@@H](CCCNC(=N)N)C(=O)N[C@H](C(=O)N[C@@H](CCCCNC(=O)CC[C@H](NC(=O)CCCCCCCCCCCCCCCCCCC(=O)O)C(=O)O)C(=O)N[C@H](C(=O)NCC(=O)N[C@@H](CO)C(=O)NCC(=O)N[C@@H](CO)C(=O)N1CCC[C@H]1C(N)=O)[C@@H](C)O)[C@@H](C)O)[C@@H](C)O [compound 55, [des1, 27K(C20 diacid-gGlu), 30S, 31G]mimylin] | >45
5 | CC(C)C[C@H](NC(=O)[C@H](C)NC(=O)[C@H](C)NC(=O)[C@@H](NC(=O)[C@H](CO)NC(=O)[C@H](CC(C)C)NC(=O)[C@H](CCC(=O)O)NC(=O)[C@H](CO)NC(=O)[C@H](C)NC(=O)CC[C@H](NC(=O)CCCCCCCCCCCCCCCCCCC(=O)O)C(=O)O)[C@@H](C)O)C(=O)NCC(=O)N[C@@H](CCCNC(=N)N)C(=O)N[C@@H](CC(C)C)C(=O)N[C@@H](CO)C(=O)N[C@@H](C)C(=O)N[C@@H](CCC(=O)O)C(=O)N[C@@H](CC(C)C)C(=O)N[C@@H](Cc1c[nH]cn1)C(=O)N[C@@H](CCC(=O)O)C(=O)N[C@@H](CC(C)C)C(=O)N[C@@H](C)C(=O)N[C@H](C(=O)N[C@@H](Cc1ccc(O)cc1)C(=O)N1CCC[C@H]1C(=O)N[C@@H](CCCNC(=N)N)C(=O)N[C@H](C(=O)N[C@@H](CCC(=O)O)C(=O)N[C@H](C(=O)NCC(=O)N[C@@H](CO)C(=O)NCC(=O)N[C@@H](CO)C(=O)N1CCC[C@H]1C(N)=O)[C@@H](C)O)[C@@H](C)O)[C@@H](C)O [compound 56, [N-terminal(C20 diacid-gGlu), des1, 23Y, 30S, 31G]mimylin] ({C20 diacid-γGlu}-ASELSTAALGRLSAELHELATYPRTETGSGSP-NH2) | >45

Next, values leading:

Row | ThT pH 7.5 lag time (h) | SMILES
6 | >45 | CC(C)C[C@H](NC(=O)[C@H](C)NC(=O)[C@H](C)NC(=O)[C@@H](NC(=O)[C@H](CO)NC(=O)[C@H](CC(C)C)NC(=O)[C@H](CCC(=O)O)NC(=O)[C@H](CO)NC(=O)[C@H](C)NC(=O)CC[C@H](NC(=O)CCCCCCCCCCCCCCCCC(=O)O)C(=O)O)[C@@H](C)O)C(=O)NCC(=O)N[C@@H](CCCNC(=N)N)C(=O)N[C@@H](CC(C)C)C(=O)N[C@@H](CO)C(=O)N[C@@H](C)C(=O)N[C@@H](CCC(=O)O)C(=O)N[C@@H](CC(C)C)C(=O)N[C@@H](Cc1c[nH]cn1)C(=O)N[C@@H](CCC(=O)O)C(=O)N[C@@H](CC(C)C)C(=O)N[C@@H](C)C(=O)N[C@H](C(=O)N[C@@H](Cc1ccc(O)cc1)C(=O)N1CCC[C@H]1C(=O)N[C@@H](CCCNC(=N)N)C(=O)N[C@H](C(=O)N[C@@H](CCC(=O)O)C(=O)N[C@H](C(=O)NCC(=O)N[C@@H](CO)C(=O)NCC(=O)N[C@@H](CO)C(=O)N1CCC[C@H]1C(N)=O)[C@@H](C)O)[C@@H](C)O)[C@@H](C)O [compound 58, [N-terminal(C18 diacid-gGlu), des1, 23Y, 30S, 31G]mimylin] ({C18 diacid-γGlu}-ASELSTAALGRLSAELHELATYPRTETGSGSP-NH2)
7 | >45 | CC(C)C[C@H](NC(=O)[C@H](C)NC(=O)[C@H](C)NC(=O)[C@@H](NC(=O)[C@H](CO)NC(=O)[C@H](CC(C)C)NC(=O)[C@H](CCC(=O)O)NC(=O)[C@H](CO)NC(=O)[C@H](C)NC(=O)CC[C@H](NC(=O)CCCCCCCCCCCCCCCCCCC(=O)O)C(=O)O)[C@@H](C)O)C(=O)NCC(=O)N[C@@H](CCCNC(=N)N)C(=O)N[C@@H](CC(C)C)C(=O)N[C@@H](CO)C(=O)N[C@@H](C)C(=O)N[C@@H](CCC(=O)O)C(=O)N[C@@H](CC(C)C)C(=O)N[C@@H](Cc1c[nH]cn1)C(=O)N[C@@H](CCC(=O)O)C(=O)N[C@@H](CC(C)C)C(=O)N[C@@H](C)C(=O)N[C@H](C(=O)N[C@@H](CC(C)C)C(=O)N1CCC[C@H]1C(=O)N[C@@H](CCCNC(=N)N)C(=O)N[C@H](C(=O)N[C@@H](CCC(=O)O)C(=O)N[C@H](C(=O)NCC(=O)N[C@@H](CO)C(=O)NCC(=O)N[C@@H](CO)C(=O)N[C@@H](Cc1ccc(O)cc1)C(N)=O)[C@@H](C)O)[C@@H](C)O)[C@@H](C)O [compound 59, [N-terminal(C20 diacid-gGlu), des1, 30S, 31G, 33Y]mimylin] ({C20 diacid-γGlu}-ASELSTAALGRLSAELHELATLPRTETGSGSY-NH2)
8 | >45 | CC(C)C[C@H](NC(=O)[C@H](C)NC(=O)[C@H](C)NC(=O)[C@@H](NC(=O)[C@H](CO)NC(=O)[C@H](CC(C)C)NC(=O)[C@H](CCC(=O)O)NC(=O)[C@H](CO)NC(=O)[C@H](C)NC(=O)CC[C@H](NC(=O)CCCCCCCCCCCCCCCCCCC(=O)O)C(=O)O)[C@@H](C)O)C(=O)NCC(=O)N[C@@H](CCCNC(=N)N)C(=O)N[C@@H](CC(C)C)C(=O)N[C@@H](CO)C(=O)N[C@@H](C)C(=O)N[C@@H](CCC(=O)O)C(=O)N[C@@H](CC(C)C)C(=O)N[C@@H](Cc1c[nH]cn1)C(=O)N[C@@H](CCC(=O)O)C(=O)N[C@@H](CC(C)C)C(=O)N[C@@H](C)C(=O)N[C@H](C(=O)N[C@@H](CC(C)C)C(=O)N1CCC[C@H]1C(=O)N[C@@H](CCCNC(=N)N)C(=O)N[C@H](C(=O)N[C@@H](CCC(=O)O)C(=O)N[C@H](C(=O)NCC(=O)N[C@@H](CO)C(=O)NCC(=O)N[C@@H](CO)C(=O)N[C@@H](Cc1c[nH]cn1)C(N)=O)[C@@H](C)O)[C@@H](C)O)[C@@H](C)O [compound 60, [N-terminal(C20 diacid-gGlu), des1, 30S, 31G, 33H]mimylin] ({C20 diacid-γGlu}-ASELSTAALGRLSAELHELATLPRTETGSGSH-NH2)

— patent US9593149B2, “Amylin and calcitonin receptor agonist” (Novo Nordisk A/S, priority 2014, dated 2017)
